First the molecules themselves.
B1: chr16:58973:59127:-|CDS|ENSG00000007384|control|control|control (ssRNA)
RNA: GGGAGUUCUACAGUCCGACGAUCCAUCUGCUUCCAGAUGACUGUCCUGCGGGACCUGGAGAAGCUGGCAGGCUGGCACCGCAUAGCCAUCAUCUACCUGCUGAGUGGUGUCACCGGCAACCUGGCCAGUGCCAUCUUCCUGCCCAACAGAGGAUUGAGCAUCA
B2: chr1:33300114:33300153:+|3pUTR|ENSG00000160094|msi1_unk|total|mutant (ssRNA)
RNA: GGGAGUUCUACAGUCCGACGAUCCCCUGCCCCCAGCCCCCACAGACACACCCCAAUCUGAAAGCCAUGCGUGUCGGUGUAUACCGGAACCAUGUACAGAGCCCAGAGAAGCCCCCUACAUCCCCCCGGGAAAAAAAAGAAAACCAACAGAGGAUUGAGCAUCA
B3: chr9:35074926:35075082:-|three_prime_utr|ENSG00000221829|control|control|control (ssRNA)
RNA: GGGAGUUCUACAGUCCGACGAUCUGUGAGCAGGGAUGUAAGUCAGAUGCGGCACUGCAGCAGCUUCGGGCAGCCGCCCUAAUUAGUCGUGGACUGGAAUGGGUAGCCAGCGGCCAGGAUACCAAAGCCUUACAGGACUUCCUCCAACAGAGGAUUGAGCAUCA
B4: chr1:145912163:145912566:-|CDS|ENSG00000131779|control|control|control (ssRNA)
RNA: GGGAGUUCUACAGUCCGACGAUCCCCACUUCUGCUAGACGUGGUCAGAAAUGCCUGUGAUCUCUUCAUUCCUCUGGACAAACUAGGCCUCUGGCGCUGUGGCCCUGGGAUUGUGGGGCUUUGUGGCCUCGUGUCCUCCAUCCUCAACAGAGGAUUGAGCAUCA
B5: chr7:21908192:21908293:-|CDS|ENSG00000164649|msi1|FALSE|unique (ssRNA)
RNA: GGGAGUUCUACAGUCCGACGAUCUUUUCUAGCGCACGCUUACAGAAUGAGAAAAAAACAAUUCUUGAAAGAAAGAAAGACUGUAGACAGGUGAUACAAAGGGAAGAUUCUACCUCUGAGUCUGAGGAUGACUCUCGGGAUGAGCAACAGAGGAUUGAGCAUCA
B6: ENSG00000124766:be:win_1301|CDS|ENSG00000124766|bound_else_gene|NA|bound_elsewhere_windowed (ssRNA)
RNA: GGGAGUUCUACAGUCCGACGAUCUUAACUUCGAGCCCGGCUCCGGCUCGCACUUCGAGUUCCCGGACUACUGCACGCCCGAGGUGAGCGAGAUGAUCUCGGGAGACUGGCUCGAGUCCAGCAUCUCCAACCUGGUUUUCACCUCAACAGAGGAUUGAGCAUCA

The other results are listed elsewhere or left out.

This test deals with T1, UNK ZnF1-6 (called full-length) (human, UniProt Q9C0B0 30-357).
T1 sequence: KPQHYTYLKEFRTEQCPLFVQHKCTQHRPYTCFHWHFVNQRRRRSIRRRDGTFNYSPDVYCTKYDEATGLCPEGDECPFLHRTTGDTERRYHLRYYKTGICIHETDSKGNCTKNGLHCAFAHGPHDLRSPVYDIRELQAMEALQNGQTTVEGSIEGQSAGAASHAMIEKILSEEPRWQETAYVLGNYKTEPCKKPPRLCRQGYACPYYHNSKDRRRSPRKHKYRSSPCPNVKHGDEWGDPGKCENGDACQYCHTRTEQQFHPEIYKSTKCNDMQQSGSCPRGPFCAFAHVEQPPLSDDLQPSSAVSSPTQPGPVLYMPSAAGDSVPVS
Kind of test: nsRBNS (natural sequence RNA bind-n-seq); RBNS binding buffer (assumed for nsRBNS): 25 mM Tris pH 7.5, 150 mM KCl, 3 mM MgCl2, 0.01% Triton X-100, 500 ug/ml BSA, 20 U/ml SUPERase-In, 4 C; UNK is unkempt and MSI1 is Musashi-1; names of the RNAs are library labels; protein concentration not given here; high values mean tight binding.
As to B1, the binding signal is 0.481 enrichment R.
Then B2, with 0.733 enrichment R.
Under B3 stands 0.844 enrichment R; under B4, 0.713 enrichment R; under B5, 0.671 enrichment R.
Then B6, with 0.474 enrichment R.

For the origin of these results see publication PMC12136788.
